This is an account of results in PubChem BioAssay (NCI).

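Five compound concentrations were applied to cells in 96-well plates for 48 hours; endpoints were derived by simple linear interpolation of the resulting dose-response curve. At the GI50, growth is halved. TGI: concentration producing complete growth inhibition.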

The experiment has as its system NCI-H322M lung. Nature of the experiment: inhibition of tumour cell growth, NCI panel, 48 h.
In turn, `Nc1ccc(CCN2CCN(CCCc3ccccc3)CC2)cc1` returned a TGI of more than 100 µM.
`CC(=O)Oc1ccccc1C(=O)/C=C/c1cccc([N+](=O)[O-])c1`: the GI50 was 11.8 µM and the TGI amounted to 26.1 µM.
`COc1ccc(C(Cl)=C(c2ccc(OCCN(C)C)cc2)c2ccc(OCCN(C)C)cc2)cc1` came in with a TGI of 7.28 µM.
The same measure, in the same setting: with `CCOc1cc(NC(C)=O)ccc1C(=O)NN1C(=O)C(Cl)C1c1ccco1` (stereo not drawn) the figure was 30.4 µM.
For `Cc1nc2ccccc2c(/C=C/c2ccc(Br)cc2)c1C(=O)/C=C/c1ccccc1`, the GI50 is 1.59 µM and the TGI is 3.2 µM.
On to `CC(C)=C/C=C1/CS(=O)(=O)C=C1C`, for which the TGI is more than 100 µM.
Consider `BrCc1ccc(CBr)cc1`, for which the GI50 was 1.03 µM and the TGI was determined as 11.8 µM.
As to `CC1=CC(=O)C(O)C2(C)C1CC(O)C13COC4(C)C(OC(=O)C41)C(O)C23` (stereo not drawn), the GI50 is 12.7 µM and the TGI is 46 µM.
In turn, `CSCCC(NC(=O)Cc1ccc(C(=O)c2ccccc2)cc1)C(=O)O` (stereo not drawn) had a TGI of more than 100 µM.
`CCOC1=C2N=C(Cc3ccccc3F)N=C2C(=O)c2ccccc21` registered a TGI of more than 100 µM.
The same measure, in the same setting: with `COc1cc(C(c2ccc3c(c2)OCO3)N2C(=O)CCC2C(=O)O)cc(OC)c1OC` (stereo not drawn) the figure was more than 100 µM; with `CC1CN1c1c(C(=O)/C=C/c2ccccc2)c(-c2ccccc2)nn(C)c1=O` (stereo not drawn), 34.7 µM.
On the same count and under the same terms, with `O=C1NC(=S)N(c2ccccc2)C1=O` the figure was more than 100 µM.
In turn, `CCO/C=C1\N=C(c2ccccc2Br)OC1=O` registered a TGI of more than 100 µM.
`CCOC(=O)[C@H](Cc1ccc(O)cc1)N=C1[C@H]2CCC[C@]1(O)[C@@](C)([N+](=O)[O-])C2`: the TGI was more than 100 µM.
On the same count and under the same terms, to `CC1(C)CCC[C@]2(C)[C@@H](C=O)C(C=O)=CC[C@@H]12` belongs more than 100 µM; to `COc1ccc(-c2cc(=O)c3c(OC)c(OC)c(OC)c(OC)c3o2)cc1`, more than 100 µM.
The compound `CCC1(O)C(=O)OCc2c1cc1n(c2=O)Cc2cc3cc(N)ccc3nc2-1` (stereo not drawn) came in with a TGI of 3.97 µM.
Compound `Cn1cncc1CC1COC(=O)C1C(O)c1ccccc1` (stereo not drawn) yielded a TGI of more than 100 µM.
As for `COc1ccc(-n2cnc3c(NC(CCSC)C(=O)O)ncnc32)cc1` (stereo not drawn), the TGI is more than 100 µM.
On the same count and under the same terms, to `C/C=C(\C)c1cc(O)c(C)c2c1Oc1cc(O)c(Cl)c(C)c1C(=O)O2` belongs 79.6 µM.
Consider `O=[N+]([O-])c1cc(S(=O)(=O)Oc2ccccc2)ccc1Cl`, for which the GI50 is 2.18 µM and the TGI is 4.22 µM.
In turn, `O=C(/C=C/c1csc(-c2ccccc2)n1)NCc1ccc(C(=O)NCc2ccccc2)cc1` registered a TGI of more than 100 µM.
